# The whole screen tested about 310,000 compounds, of which about 2,200 (0.71%) showed an effect of 50% or more. Effects have a minus sign here. This is one part of the list.
# Biological target: human ether-à-go-go-related gene (hERG) potassium channel (human, UniProt Q12809)
# Assay: primary screen, population patch clamp on CHO cells stably expressing hERG
# Chain of human ether-à-go-go-related gene (hERG) potassium channel (Q12809 whole entry, looked up): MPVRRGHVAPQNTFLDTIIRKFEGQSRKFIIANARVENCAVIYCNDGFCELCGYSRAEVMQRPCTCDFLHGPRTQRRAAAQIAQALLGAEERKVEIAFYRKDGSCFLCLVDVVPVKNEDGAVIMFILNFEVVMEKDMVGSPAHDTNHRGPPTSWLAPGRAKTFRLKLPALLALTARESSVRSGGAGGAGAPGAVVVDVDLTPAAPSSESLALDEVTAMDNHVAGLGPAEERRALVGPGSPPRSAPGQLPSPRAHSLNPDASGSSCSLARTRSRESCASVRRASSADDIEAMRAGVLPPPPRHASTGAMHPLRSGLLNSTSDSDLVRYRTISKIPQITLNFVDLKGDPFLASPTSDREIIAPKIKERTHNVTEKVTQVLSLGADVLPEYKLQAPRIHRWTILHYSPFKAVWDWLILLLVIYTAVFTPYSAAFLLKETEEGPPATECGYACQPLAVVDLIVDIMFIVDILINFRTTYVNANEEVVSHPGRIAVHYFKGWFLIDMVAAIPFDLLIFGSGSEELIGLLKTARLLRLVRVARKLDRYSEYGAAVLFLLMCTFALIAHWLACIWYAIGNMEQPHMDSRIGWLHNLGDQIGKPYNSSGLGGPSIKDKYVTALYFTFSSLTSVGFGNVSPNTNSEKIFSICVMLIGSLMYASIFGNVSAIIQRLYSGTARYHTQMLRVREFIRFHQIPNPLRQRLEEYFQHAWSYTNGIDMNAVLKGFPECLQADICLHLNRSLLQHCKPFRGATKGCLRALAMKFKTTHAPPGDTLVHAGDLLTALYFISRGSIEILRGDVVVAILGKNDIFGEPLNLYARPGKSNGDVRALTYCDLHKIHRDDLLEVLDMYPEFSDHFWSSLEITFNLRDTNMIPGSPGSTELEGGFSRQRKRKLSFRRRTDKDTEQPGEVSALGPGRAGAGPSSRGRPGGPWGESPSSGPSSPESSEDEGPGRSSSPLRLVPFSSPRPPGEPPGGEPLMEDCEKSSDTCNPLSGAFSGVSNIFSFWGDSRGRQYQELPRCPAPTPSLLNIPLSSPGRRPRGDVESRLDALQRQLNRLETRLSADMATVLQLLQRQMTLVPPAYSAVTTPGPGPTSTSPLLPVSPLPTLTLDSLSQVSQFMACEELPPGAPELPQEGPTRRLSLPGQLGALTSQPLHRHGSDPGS
row,Compound,"hERG current change (%, negative = inhibition) at 1uM"
1,CC(=O)NS(=O)(=O)c1ccc(NC(=O)CSc2ccc(Cl)cc2)cc1,4.63%
2,CCCn1cc(C(=O)OCC)c(=O)c2cc(F)c(F)cc21,11.4%
3,CCCCc1n[nH]c2c1/C(=N/OCC)CC(C)(C)C2,16.1%
4,Cc1ccccc1N1CC(C(=O)NC2CCCC2)CC1=O (centres unmarked),13%
5,Cc1cccc(-c2nnc(NC(=O)c3ccc(N4C(=O)CCC4=O)cc3)s2)c1,14.6%
6,CCOC(=O)C1CCCN(C(=O)c2ccc3oc(CCc4ccccc4)nc3c2)C1 (centres unmarked),8.66%
7,COc1ccccc1-c1nc(C(F)(F)F)c(OC)o1,-1.13%
8,c1ccc(-n2ncc3c2ncn2cnnc32)cc1,13.1%
9,c1ccc(-c2nnnc3ccccc23)cc1,13.1%
10,O=C1N(Cc2cccc(Cl)c2)C[C@@H]2C[C@@H](c3ccsc3)N3CCC[C@@]123,-6.04%
11,C=CC1=C(C(=O)O)N2C(=O)[C@@H](NC(=O)/C(=N/OCC(=O)O)c3csc(N)n3)[C@H]2SC1.O,18.1%
12,COC(=O)c1cc(=O)n(Cc2ccco2)c(=Nc2ccc(F)c(Cl)c2)s1,-6.63%
13,CCNC(=O)Cc1ccc(Br)cc1,10.7%
14,OCCNCC(O)CN1c2ccccc2Sc2ccccc21 (centres unmarked),7.67%
15,CCOC(=O)CNC(=O)CSc1nnc(-c2ccco2)n1Cc1ccco1,6.74%
16,Cc1ccc(N2CCN(C(=S)c3ccc(-c4ccccc4[N+](=O)[O-])o3)CC2)cc1,14.7%
17,CCC1=C(OC(=O)N(CC)CC)N2C(=O)OC(=NCCc3c[nH]c4ccccc34)[C@]2(Cc2ccccc2)[C@H]2C1=CC[C@H]1C(=O)N(c3ccccc3)C(=O)[C@H]12,9.01%
18,NC(=O)c1cccnc1OCC(F)(F)F,1.58%
19,Cc1nc(NC(=O)COC(=O)CCS(=O)(=O)c2ccccc2Cl)c(Cl)cc1Cl,11.3%

row,Compound,"hERG current change (%, negative = inhibition) at 1uM"
1,CC(NC(=O)c1ccc2c(c1)OCO2)c1cccc(C(F)(F)F)c1 (centres unmarked),4.04%
2,CC(Sc1nnc(-c2cc3ccccc3o2)n1-c1ccccc1)C(=O)O (centres unmarked),13.1%
3,Cc1ccc(NC(=O)c2ccc3nsnc3c2)c(Cl)c1,9.66%
4,CCOc1ccc(NC(=O)CSc2nc3ccccc3nc2N2CCOCC2)cc1,-3.83%
5,Nc1c(Cl)cc(Cl)cc1C(=O)OCC(=O)N1CCCC1,-10.3%
6,CC1CN(CCc2ccccc2)c2nc3c(c(=O)n(C)c(=O)n3C)n2C1 (centres unmarked),-7.41%
7,CN(C1CCS(=O)(=O)C1)S(=O)(=O)c1ccc2ccccc2c1 (centres unmarked),-6.73%
8,COc1ccc(CN2CCNC(=O)C2CC(=O)NC2CCCCCCC2)cc1OC (centres unmarked),12.3%
9,CCN(CC)c1ccc(NC(=O)Nc2ccccc2C(F)(F)F)cc1,10.8%
10,COCc1ccc(CN2CCCC(CO)(Cc3ccccc3)C2)o1 (centres unmarked),9.3%
11,COC(=O)[C@H](CC(C)C)NC(=O)Nc1ccc2c(c1)OCCO2,6.42%
12,CCOC(=O)c1[nH]c(C)c(C(=O)N(C)Cc2ccccc2)c1C,3.82%
13,COc1cccc(NC(=S)N(Cc2ccc(C(=O)O)cc2)Cc2ccc(OC)c(OC)c2)c1,9.03%
14,CC1CCCN(c2nc(NCc3ccco3)nc(N)c2[N+](=O)[O-])C1 (centres unmarked),3.98%
15,CCOc1nc2ccccc2cc1/C=C/C(=O)O,10.5%
16,CCC(NC(=O)CCc1ccccc1)c1ccccc1 (centres unmarked),2.38%
17,CC(c1nnnn1C1CCCCC1)N(Cc1ccccc1)Cc1cccnc1 (centres unmarked),-7.88%
18,O=C(Nc1ccc(N2CCCC2)cc1)c1cc([N+](=O)[O-])ccc1N1CCOCC1,6.47%
19,CCOC(=S)SCC(=O)Nc1ncc(C)s1,15.1%

row,Compound,"hERG current change (%, negative = inhibition) at 1uM"
1,COc1ccccc1C(=O)N(C1=NC(C)CS1)c1ccc(Cl)cc1 (centres unmarked),8.39%
2,COc1c2occc2c(OC)c2c(=O)cc(C)oc12,-3.93%
3,O=S1(=O)CCOCCN1Cc1ccccc1,10.2%
4,CCN1CCSc2ccc(C(=O)NCc3cccc(F)c3)cc21,15.9%
5,CCn1c(CSc2n[nH]c(N)n2)nc2cc(C(=O)O)ccc21,11.3%
6,O=C(c1cc2ccccc2oc1=O)N(Cc1cccs1)Cc1ccccc1Cl,2.42%
7,CCCCOC(=O)Cn1c(=N)n(CCC)c2ccccc21.Cl,-4.92%
8,CCOC(=O)C1CCN(C2CC(=O)N(c3ccc(OCC)cc3)C2=O)CC1 (centres unmarked),2.22%
9,COc1cc(NC(=O)c2cc(-c3ccco3)on2)cc(OC)c1OC,6.43%
10,COc1ccc(CC2(C)OC(c3ccc(C)c([N+](=O)[O-])c3)=NN2C(C)=O)cc1 (centres unmarked),12.8%
11,CC1(C)CC(=O)C2=C(C1)OC(N)=C([N+](=O)[O-])C2c1cccs1 (centres unmarked),11.4%
12,COC(=O)CSC1=C(C#N)C(c2ccc(C)cc2)C2=C(CCCC2=O)N1 (centres unmarked),-2.79%
13,Cc1nc2nc(C)c(CCC(=O)NCCCN3CCN(c4cccc(Cl)c4)CC3)c(C)n2n1,14.8%
14,COc1ccc(-c2ccc([C@H]3[C@H]4C=CC[C@@H](C)[C@@H]4C(=O)N3Cc3ccccc3)c(F)c2)cc1C,12.4%
15,O=C(N/N=C/c1cccc(F)c1)c1c(O)c2c([nH]c1=O)CCCC2,-2.39%
16,CCOC(=O)N1CCN(C(=O)c2ccc(C#CC3(O)CCCCC3)cc2)CC1,1.27%
17,CN(C)S(=O)(=O)c1ccc2oc(SCC(=O)c3c(N)n(C4CC4)c(=O)[nH]c3=O)nc2c1,13%
18,CC[C@]1(O)C[C@@H]2CN(CCc3c([nH]c4ccccc34)[C@@](C(=O)OC)(c3cc4c(cc3OC)N(C=O)[C@H]3[C@@](O)(C(=O)OC)[C@H](OC(C)=O)[C@]5(CC)C=CCN6CC[C@]43[C@@H]65)C2)C1.O=S(=O)(O)O,16.1%

# From publication PMC4336329 (PLoS ONE, 2015)
